Screen size: about 360,000 compounds; about 25,000 (6.9%) were called active. This list was built around the results that the source calls inconclusive (neither active nor inactive); the mix of calls is not that of the screen. Calls come from the whole dose curve; as a rule, active = well fitted inhibition curve with a large enough effect; inconclusive = small, poorly fitted or top-dose-only effect; inactive = flat fitted curve, though single readings scatter. Where the call is inconclusive, the potency comes from a doubtful curve fit.
Each molecule was assayed against Luciferin 4-monooxygenase (Photinus pyralis) (UniProt P08659) (assay: qHTS profiling assay for firefly luciferase inhibitor/activator using purifed enzyme and Km concentrations of substrates (counterscreen for miR-21 project)). Settings: purified FLuc, luminescence inhibition; series mostly up to 57.5 µM; activity change, negative = inhibition: at the top concentration.
UniProt P08659, sequence (P08659 whole entry, looked up): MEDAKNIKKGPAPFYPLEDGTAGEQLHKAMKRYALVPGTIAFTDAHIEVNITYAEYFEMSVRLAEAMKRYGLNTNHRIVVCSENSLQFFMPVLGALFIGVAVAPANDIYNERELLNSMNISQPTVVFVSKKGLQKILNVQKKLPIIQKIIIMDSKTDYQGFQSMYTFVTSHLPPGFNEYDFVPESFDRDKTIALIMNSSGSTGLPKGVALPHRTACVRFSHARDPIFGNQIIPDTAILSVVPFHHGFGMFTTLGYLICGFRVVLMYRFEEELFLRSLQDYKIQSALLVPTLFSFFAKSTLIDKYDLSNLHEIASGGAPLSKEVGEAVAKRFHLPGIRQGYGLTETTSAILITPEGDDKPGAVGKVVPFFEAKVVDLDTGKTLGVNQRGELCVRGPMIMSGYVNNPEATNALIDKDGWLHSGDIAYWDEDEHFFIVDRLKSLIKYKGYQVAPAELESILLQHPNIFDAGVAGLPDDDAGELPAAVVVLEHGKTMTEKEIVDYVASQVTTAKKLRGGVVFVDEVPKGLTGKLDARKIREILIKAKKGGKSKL
Summary of the method: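 Purified P. pyralis luciferase, 10 nM final, with Km-level 10 uM D-luciferin and 10 uM ATP in 50 mM Tris acetate pH 7.5, 10 mM Mg acetate, 0.01% Tween-20, 0.05% BSA; 6-point qHTS titration about 60 µM downward; luminescence read.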
For `CC(C(=O)Nc1ccc(O)cc1C(=O)O)N1C(=O)/C(=C\c2cccs2)SC1=S` (stereo not drawn), the Potency was inconclusive: 21.3 µM [inhibitor, single point].
With `Cc1ccc2[nH]c(C(=O)NN=C3CCCCC3)c(-c3ccccc3)c2c1` the “activity change, negative = inhibition” value was inactive: 5.99%.
`Cc1nc(N)nc(COc2ccccc2)n1` was tested, and the Potency was inconclusive: 30.1 µM [inhibitor, single point].
`O=C(O)CCc1ccc(-c2ccc(Br)cc2)n1NC(=O)c1ccc([N+](=O)[O-])cc1` was tested, and the Potency was inconclusive: 37.9 µM [inhibitor, partial curve, poor fit].
With `O=C(O)Cn1c(=S)sc2ccccc21` the Potency was inconclusive: 37.9 µM [inhibitor, single point].
With `COc1cccc(CN(CC2CCCO2)C(=O)c2cc3ccccc3oc2=O)c1` (stereo not drawn) the Potency was inconclusive: 37.9 µM [inhibitor, single point].
`O=C(O)CCn1c(SCCOc2ccccc2F)nc2ccccc21` was tested, and the Potency was inconclusive: 37.9 µM [inhibitor, partial curve, poor fit].
`COc1cccc(/C=C/C(=O)OCC(=O)Nc2ccc(Cl)c(S(=O)(=O)N(C)C)c2)c1OC` was tested, and the Potency was active: 13.5 µM.
`CCOC(=O)CNC(=O)CSc1nnc(SCC(=O)NCC(=O)OCC)s1` was tested, and the “activity change, negative = inhibition” value was inactive: -3.3%.
For `COc1cccc(NC(=O)c2sc3nc(C)c(C(=O)Nc4ccc(C)cc4C)c(-c4cccs4)c3c2N)c1`, the “activity change, negative = inhibition” value was inactive: -3.22%.
`COc1cccc(-c2nc(NC(C)(C)C)c3ccccc3n2)c1O` was tested, and the “activity change, negative = inhibition” value was inactive: -3%.
`Cc1[nH]c2ccccc2c1C(=O)CSC(=S)N1CCN(C)CC1` was tested, and the Potency was inconclusive: 21.3 µM [inhibitor, partial curve].
With `Cc1cccc(NC(=S)N/N=C/c2ccc([N+](=O)[O-])s2)c1` the “activity change, negative = inhibition” value was inactive: -2.65%.
`C=CCNC(=S)Nc1sc2c(c1C#N)CCCC2` was tested, and the Potency was active: 21.3 µM.
For `O=C(CC1Oc2ccccc2NC1=O)NCc1ccc(F)cc1` (stereo not drawn), the “activity change, negative = inhibition” value was inactive: -1.72%.
With `S=C(NCc1ccccc1)Nc1ccc(Cl)cc1` the Potency was inconclusive: 23.9 µM [inhibitor, partial curve, poor fit].
With `O=c1oc2ccc(F)cc2cc1-c1nc(-c2cccs2)no1` the Potency was inconclusive: 0.675 µM [inhibitor, full curve].
For `CCOc1ccc(NC(=O)c2oc(=O)c3ccccc3c2-c2ccc(C)cc2)cc1`, the “activity change, negative = inhibition” value was inactive: -1.37%.
For `Cc1cccc(OCc2nnc(-c3ccccc3)o2)c1`, the Potency was inconclusive: 16.9 µM [inhibitor, single point].
With `CCOC(=O)N/N=C/c1ccc(F)cc1F` the Potency was inconclusive: 37.9 µM [inhibitor, single point].
With `Cn1cc(C(=O)c2ccc(Cl)cc2Cl)cc1C(=O)N/N=C(\N)COc1ccc(F)cc1` the “activity change, negative = inhibition” value was inactive: 3.07%.
`CC1CCN(CCCOc2ccc(Br)cc2Cl)CC1` was tested, and the Potency was inconclusive: 30.1 µM [inhibitor, partial curve, poor fit].
For `Cc1c(NC(=O)c2ccc(Cl)cc2)cc(C(C)C)c(O)c1S(=O)(=O)c1ccccc1`, the Potency was inconclusive: 5.36 µM [inhibitor, partial curve, poor fit].
With `CCc1ccc(NC(=O)c2ccc3c(O)c(S(=O)(=O)c4ccccc4)c(=O)[nH]c3c2)cc1` the Potency was active: 4.26 µM.
With `Cc1snc2sc(C(=O)c3ccc(F)cc3)c(N)c12` the Potency was inconclusive: 6.01 µM [inhibitor, partial curve, poor fit].
With `Cc1cc2ncn(C(=O)c3ccc(F)cc3)c2cc1C` the Potency was active: 13.5 µM.
`COc1cc(C(C)=O)ccc1OCC(O)Cn1nc(C)c(Br)c1C` (stereo not drawn) was tested, and the Potency was inconclusive: 23.9 µM [inhibitor, partial curve, poor fit].
`O=C(NCc1cccc(Cl)c1)c1ccc2c(c1)OCCO2` was tested, and the Potency was inconclusive: 23.9 µM [inhibitor, single point].
For `Cc1cc(=O)oc2c3c(cc(OCC(=O)NCCC(=O)O)c12)OC(C)(C)CC3`, the “activity change, negative = inhibition” value was inactive: -6.37%.
For `C[C@@H]1O[C@@H](O[C@@H]2C(=O)c3c(O)cc(O)cc3O[C@H]2c2ccc(O)c(O)c2)[C@H](O)[C@H](O)[C@H]1O`, the “activity change, negative = inhibition” value was inactive: 0.303%.
`CCN(C(=O)Cn1cc(C(=O)c2ccc(F)cc2)c(=O)c2ccc(C)nc21)c1cccc(C)c1` was tested, and the “activity change, negative = inhibition” value was inactive: -4.78%.
For `COc1ccc(C(=O)Nc2nc(CC(=O)NCc3ccc(F)cc3)cs2)cc1`, the Potency was inconclusive: 2.69 µM [inhibitor, partial curve].
In the case of `O=C(c1ccc2oc(Cc3ccc(Cl)cc3)nc2c1)N1CC[C@H](O)C1`, the “activity change, negative = inhibition” value is reported as inactive: 6.76%.
For `NS(=O)(=O)c1ccc(NC(=O)COC(=O)COc2ccc(Br)cc2)cc1`, the “activity change, negative = inhibition” value was inactive: -1.32%.
For `CCOc1ccc2oc(-c3ccccc3)c(C(N)=O)c2c1`, the Potency was inconclusive: 19 µM [inhibitor, partial curve, poor fit].
With `Cc1cccc(OCCOc2ccccc2C=C(C#N)C#N)c1` the Potency was inconclusive: 16.9 µM [inhibitor, single point].
`O=C(CCN1C(=O)/C(=C/c2ccc(F)cc2)SC1=S)NC1C=CS(=O)(=O)C1` (stereo not drawn) was tested, and the “activity change, negative = inhibition” value was inactive: 6.28%.
With `O=C(N/N=C/c1ccnc2ccccc12)c1ccccc1O` the Potency was active: 10.7 µM.
`COc1ccc2nc3ccccc3nc2c1` was tested, and the Potency was active: 16.9 µM.
`CCn1c(SCC(=O)c2ccc(OC)cc2)nnc1C1CC1` was tested, and the Potency was inconclusive: 33.8 µM [inhibitor, partial curve, poor fit].
`COc1ccc(OC)c(C(=O)COC(=O)c2[nH]c(C)c(C(C)=O)c2C)c1` was tested, and the “activity change, negative = inhibition” value was inactive: 3.28%.
With `Cc1ccc(-c2ocnc2C(=O)Nc2nc(C)cs2)cc1` the Potency was inconclusive: 15.1 µM [inhibitor, partial curve].
With `CC(C)CC(C)NNC(=O)c1cc2ccccc2[nH]1` (stereo not drawn) the “activity change, negative = inhibition” value was inactive: 0.0109%.
For `CCCC(=O)Oc1ccc2c(C)cc(=O)oc2c1`, the Potency was inconclusive: 37.9 µM [inhibitor, partial curve, poor fit].
In the case of `COc1ccc(C(=O)CCC(=O)N2CCN(c3ccc(C)cc3)C(C)C2)cc1` (stereo not drawn), the “activity change, negative = inhibition” value is reported as inactive: -2.01%.
With `FC(F)(F)c1cnc(Nc2ccc(N3CCOCC3)cc2)c(Cl)c1` the Potency was inconclusive: 26.9 µM [inhibitor, single point].
For `COC(=O)c1ccc(NC(=O)NC2CCCCC2)cc1`, the Potency was inconclusive: 19 µM [inhibitor, partial curve].
For `COc1ccc(CN(C(=O)/C=C/c2ccccc2Cl)C2CCS(=O)(=O)C2)cc1` (stereo not drawn), the Potency was inconclusive: 30.1 µM [inhibitor, single point].

— PubChem BioAssay AID588342 (National Center for Advancing Translational Sciences (NCATS), 2011)
Note: nearly all actives have a fitted effect of over 55% in size.
Potency is the fitted concentration of half-maximal effect; tags give direction and shape of the fitted curve.
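Throughout, for activity change, negative = inhibition: plate controls were vehicle for no effect and reference inhibitor for full effect.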
